Columns and labels:
[1] = biological target: T1, Human NKp46 recombinant protein (human, UniProt O76036 22-258, limits assumed); assay: SPR (Biacore T100), captured on Protein-A chip, recombinant human NKp46 6.25-400 nM, 1:1 kinetic model
T1 construct: Soluble analyte in SPR; also called recombinant human NKp46 proteins
T1 sequence (looked up): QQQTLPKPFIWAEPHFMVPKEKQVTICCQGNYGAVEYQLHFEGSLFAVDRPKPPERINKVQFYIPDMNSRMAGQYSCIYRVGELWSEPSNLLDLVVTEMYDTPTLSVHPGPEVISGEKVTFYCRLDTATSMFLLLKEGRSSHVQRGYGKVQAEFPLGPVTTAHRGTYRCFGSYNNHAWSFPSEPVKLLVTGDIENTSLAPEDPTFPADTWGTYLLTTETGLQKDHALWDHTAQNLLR
Protocol: SPR measurements were performed on a Biacore T100 apparatus (Biacore GE Healthcare) at 25° C. In all Biacore experiments HBS-EP+ (Biacore GE Healthcare) and NaOH 10 mM served as running buffer and regeneration buffer respectively. Sensorgrams were analyzed with Biacore T100 Evaluation software. Protein-A was purchased from (GE Healthcare). Human NKp46 recombinant proteins were cloned, produced and purified at Innate Pharma.
Protein-A proteins were immobilized covalently to carboxyl groups in the dextran layer on a Sensor Chip CMS. The chip surface was activated with EDC/NHS (N-ethyl-N′-(3-dimethylaminopropyl) carbodiimidehydrochloride and N-hydroxysuccinimide (Biacore GE Healthcare)). Protein-A was diluted to 10 μg/ml in coupling buffer (10 mM acetate, pH 5.6) and injected until the appropriate immobilization level was reached (i.e. 2000 RU). Deactivation of the remaining activated groups was performed using 100 mM ethanolamine pH 8 (Biacore GE Healthcare).
Monovalent affinity study was conducted following a regular Capture-Kinetic protocol recommended by the manufacturer (Biacore GE Healthcare kinetic wizard). Seven serial dilutions of human NKp46 recombinant proteins, ranging from 6.25 to 400 nM were sequentially injected over the captured Bi-Specific antibodies and allowed to dissociate for 10 min before regeneration. The entire sensorgram sets were fitted using the 1:1 kinetic binding model.

human FcRn = biological target: T2, human FcRn (human, UniProt P55899 fragment; P61769 fragment, limits assumed); assay: SPR, recombinant human FcRn immobilized on chip; SCK/Two state reaction
Sequence of human FcRn (P55899 24-297 limits assumed, chain 1 of 2): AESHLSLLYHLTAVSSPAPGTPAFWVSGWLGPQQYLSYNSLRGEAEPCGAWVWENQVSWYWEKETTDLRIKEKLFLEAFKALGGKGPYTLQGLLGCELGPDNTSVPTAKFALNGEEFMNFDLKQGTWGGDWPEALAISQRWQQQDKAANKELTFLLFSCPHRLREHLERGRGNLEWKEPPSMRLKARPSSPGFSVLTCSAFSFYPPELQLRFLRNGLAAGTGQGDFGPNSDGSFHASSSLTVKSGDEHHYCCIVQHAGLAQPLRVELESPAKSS
Sequence of human FcRn (P61769 21-119 limits assumed, chain 2 of 2, further chain): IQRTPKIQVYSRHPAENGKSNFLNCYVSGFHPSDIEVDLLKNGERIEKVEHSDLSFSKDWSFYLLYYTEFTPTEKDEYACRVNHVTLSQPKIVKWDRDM
T2 construct: also called recombinant FcRn proteins

B1: CD19-F14-NKp46-3 (bispecific antibody, human IgG1, kappa)
chain 1: QVQLQQSGAELVRPGSSVKISCKASGYAFSSYWMNWVKQRPGQGLEWIGQIWPGDGDTNYNGKFKGKATLTADESSSTAYMQLSSLASEDSAVYFCARRETTTVGRYYYAMDYWGQGTTVTVSSASTKGPSVFPLAPSSKSTSGGTAALGCLVKDYFPEPVTVSWNSGALTSGVHTFPAVLQSSGLYSLSSVVTVPSSSLGTQTYICNVNHKPSNTKVDKRV[human IgG1 Fc with N297S (EU numbers) cut from this listing]TGSEVQLQQSGPELVKPGASVKISCKTSGYTFTEYTMHWVKQSHGKSLEWIGGISPNIGGTSYNQKFKGKATLTVDKSSSTAYMELRSLTSEDSAVYYCARRGGSFDYWGQGTTLTVSSVEGGSGGSGGSGGSGGVDDIVMTQSPATLSVTPGDRVSLSCRASQSISDYLHWYQQKSHESPRLLIKYASQSISGIPSRFSGSGSGSDFTLSINSVEPEDVGVYYCQNGHSFPLTFGAGTKLELK
chain 2: IQLTQSPASLAVSLGQRATISCKASQSVDYDGDSYLNWYQQIPGQPPKLLIYDASNLVSGIPPRFSGSGSGTDFTLNIHPVEKVDAATYHCQQSTEDPWTFGGGTKLEIKRTVAAPSVFIFPPSDEQLKSGTASVVCLLNNFYPREAKVQWKVDNALQSGNSQESVTEQDSKDSTYSLSSTLTLSKADYEKHKVYACEVTHQGLSSPVTKSFNRGE[human IgG1 Fc with N297S (EU numbers) cut from this listing]
notes: copies: 1 + 1
Kd [1]: 62 nM
koff [1]: 0.00546 s⁻¹
kon [1]: 88300 M⁻¹ s⁻¹
Kd (human FcRn): 14 nM

From patent US20200048345A1 (INNATE PHARMA, published 2020)
